Drawing on a collection of fitness landscapes (doi:10.1126/science.1257360), this text covers enrichment ratio for 153 variants.

Sequences and labels used below:
B1: PhoQ; a variant is named by its letters at X, in order, P23837 (parent)
chain: MKKLLRLFFPLSLRVRFLLATAAVVLVLSLAYGMVALIGYSVSFDKTTFRLLRGESNLFYTLAKWENNKLHVELPENIDKQSPTMTLIYDENGQLLWAQRDVPWLMKMIQPDWLKSNGFHEIEADVNDTSLLLSGDHSIQQQLQEVREDDDDAEMTHSVAVNVYPATSRMPKLTIVVVDTIPVELKSSYMVWSWFIYVLSANLLLVIPLLWVAAWWSLRPIEALAKEVRELEEHNRELLNPATTRELTSLVRNLNRLLKSERERYDKYRTTLTDLTHSLKTPLXXLQXXLRSLRSEKMSVSDAEPVMLEQISRISQQIGYYLHRASMRGGTLLSRELHPVAPLLDNLTSALNKVYQRKGVNISLDISPEISFVGEQNDFVEVMGNVLDNACKYCLEFVEISARQTDEHLYIVVEDDGPGIPLSKREVIFDRGQRVDTLRPGQGVGLAVAREITEQYEGKIVAGESMLGGARMEVIFGRQHSAPKDE

This is one part of the list.

The assay covers variants of B1. Kind of assay: enrichment ratio after two sorts for PhoP signalling (ratio (wild type AVST 3.29)); higher = more functional. The conditions noted are these: with PhoP (E. coli).
WDLA: the enrichment ratio is no more than 0.25.

As to RKMD, the enrichment ratio was no more than 0.25.

On to QRQV, for which the enrichment ratio was no more than 0.25.

As for MNDE, the enrichment ratio was no more than 0.25.

With RGEV, the enrichment ratio is no more than 0.25.

HTNP: the enrichment ratio is no more than 0.25.

As for RGCW, the enrichment ratio was no more than 0.25.

On to SIEG, for which the enrichment ratio was no more than 0.25.

TIVM: the enrichment ratio was no more than 0.25.

In the case of TGPG, the enrichment ratio is no more than 0.25.

Turning to DQHC, the enrichment ratio was no more than 0.25.

Consider ELYH, for which the enrichment ratio was no more than 0.25.

As to KERP, the enrichment ratio is no more than 0.25.

Consider PQLA, for which the enrichment ratio is no more than 0.25.

For TFQD, the enrichment ratio was no more than 0.25.

Take FFYR: the enrichment ratio is no more than 0.25.

As for NCIY, the enrichment ratio is no more than 0.25.

On to YWYD, for which the enrichment ratio is no more than 0.25.

With YHYL, the enrichment ratio is no more than 0.25.

Regarding LHRP, the enrichment ratio is no more than 0.25.

In the case of IEVM, the enrichment ratio was no more than 0.25.

Regarding VKRQ, the enrichment ratio is no more than 0.25.

Take SDHW: the enrichment ratio was no more than 0.25.

As for MQYP, the enrichment ratio is no more than 0.25.

For EMEH, the enrichment ratio was no more than 0.25.

Turning to VNNF, the enrichment ratio is no more than 0.25.

With PNLR, the enrichment ratio is no more than 0.25.

Regarding YAMT, the enrichment ratio is no more than 0.25.

Consider VALP, for which the enrichment ratio was no more than 0.25.

As for KLWY, the enrichment ratio is no more than 0.25.

Regarding WSVD, the enrichment ratio is no more than 0.25.

Turning to SLPK, the enrichment ratio is no more than 0.25.

For the variant RYKP, the enrichment ratio was no more than 0.25.

Take FVTY: the enrichment ratio was no more than 0.25.

Regarding RNWE, the enrichment ratio was no more than 0.25.

On to TLKF, for which the enrichment ratio was no more than 0.25.

Take SMKG: the enrichment ratio was no more than 0.25.

For the variant IVSA, the enrichment ratio is no more than 0.25.

Consider HRQL, for which the enrichment ratio is no more than 0.25.

For WQKS, the enrichment ratio was no more than 0.25.

Regarding VCKG, the enrichment ratio was no more than 0.25.

With NWMS, the enrichment ratio is no more than 0.25.

For the variant IHPW, the enrichment ratio is no more than 0.25.

With WCSM, the enrichment ratio was no more than 0.25.

For WHPY, the enrichment ratio was no more than 0.25.

With QFYH, the enrichment ratio was no more than 0.25.

For the variant YPIK, the enrichment ratio is no more than 0.25.

Take REAY: the enrichment ratio amounted to 5.49.

Turning to MKMF, the enrichment ratio was no more than 0.25.

Take RKTA: the enrichment ratio was no more than 0.25.

Take SIWP: the enrichment ratio was no more than 0.25.

On to HICT, for which the enrichment ratio was no more than 0.25.

Turning to IMHC, the enrichment ratio is no more than 0.25.

Take TFDV: the enrichment ratio is no more than 0.25.

On to PCWL, for which the enrichment ratio is no more than 0.25.

TEFT: the enrichment ratio amounted to 5.71.

Turning to FGYP, the enrichment ratio is no more than 0.25.

In the case of ISIQ, the enrichment ratio was no more than 0.25.

Take KKQT: the enrichment ratio is no more than 0.25.

Consider ITDA, for which the enrichment ratio is no more than 0.25.

Consider KFKC, for which the enrichment ratio is no more than 0.25.

For the variant FSMR, the enrichment ratio is no more than 0.25.

As for IDEK, the enrichment ratio was no more than 0.25.

Regarding SFCI, the enrichment ratio was determined as 0.567.

On to PSEL, for which the enrichment ratio was no more than 0.25.

With VYEP, the enrichment ratio was no more than 0.25.

As for KMYY, the enrichment ratio was no more than 0.25.

As to YALY, the enrichment ratio came to 3.59.

Take QPVQ: the enrichment ratio is no more than 0.25.

With ISGR, the enrichment ratio was no more than 0.25.

In the case of ACRG, the enrichment ratio was no more than 0.25.

As for ESTY, the enrichment ratio is no more than 0.25.

Regarding TVFH, the enrichment ratio was no more than 0.25.

Take IWDV: the enrichment ratio was no more than 0.25.

As to HKAA, the enrichment ratio is no more than 0.25.

With VVME, the enrichment ratio was no more than 0.25.

SSFD: the enrichment ratio is no more than 0.25.

In the case of AHRD, the enrichment ratio is no more than 0.25.

With CPTF, the enrichment ratio is no more than 0.25.

With PTEL, the enrichment ratio is no more than 0.25.

Regarding NHFA, the enrichment ratio was no more than 0.25.

In the case of FVKM, the enrichment ratio was no more than 0.25.

As to VASM, the enrichment ratio came out at 4.41.

Take CLLH: the enrichment ratio is no more than 0.25.

In the case of FCTS, the enrichment ratio was no more than 0.25.

Consider HMFF, for which the enrichment ratio came to 0.262.

DKFR: the enrichment ratio was no more than 0.25.

For the variant TAMK, the enrichment ratio is no more than 0.25.

As for IAHC, the enrichment ratio is no more than 0.25.

As to DTDA, the enrichment ratio was no more than 0.25.

With GMHW, the enrichment ratio was no more than 0.25.

Consider LTVQ, for which the enrichment ratio is no more than 0.25.

For LNAT, the enrichment ratio is no more than 0.25.

Consider FPLK, for which the enrichment ratio was no more than 0.25.

As for SWYF, the enrichment ratio is no more than 0.25.

On to TYKR, for which the enrichment ratio was no more than 0.25.

For RDSQ, the enrichment ratio is no more than 0.25.

With RIPT, the enrichment ratio is no more than 0.25.

On to NCTF, for which the enrichment ratio was no more than 0.25.

As to TRTG, the enrichment ratio is no more than 0.25.

In the case of ILKF, the enrichment ratio was no more than 0.25.

In the case of PHVA, the enrichment ratio was no more than 0.25.

With MEEH, the enrichment ratio was no more than 0.25.

For the variant EEHS, the enrichment ratio is no more than 0.25.

For the variant DMLN, the enrichment ratio is no more than 0.25.

In the case of INYW, the enrichment ratio is no more than 0.25.

HISF: the enrichment ratio is no more than 0.25.

Turning to LHQN, the enrichment ratio is no more than 0.25.

As to YWWS, the enrichment ratio is no more than 0.25.

Turning to FTLG, the enrichment ratio is 6.21.

Consider RMQA, for which the enrichment ratio is no more than 0.25.

For LPLW, the enrichment ratio was no more than 0.25.

In the case of PMYT, the enrichment ratio is no more than 0.25.

For the variant GWRT, the enrichment ratio is no more than 0.25.

Take FRYE: the enrichment ratio was no more than 0.25.

Take DELK: the enrichment ratio is no more than 0.25.

With CPCL, the enrichment ratio was no more than 0.25.

Turning to HCFI, the enrichment ratio is no more than 0.25.

For DTPF, the enrichment ratio is no more than 0.25.

As for NYPH, the enrichment ratio is no more than 0.25.

In the case of SVIF, the enrichment ratio is 0.504.

As for YHFK, the enrichment ratio is no more than 0.25.

LRVG: the enrichment ratio was no more than 0.25.

Turning to KIYR, the enrichment ratio was no more than 0.25.

On to KQAY, for which the enrichment ratio was no more than 0.25.

Take RPEV: the enrichment ratio was no more than 0.25.

In the case of IGHS, the enrichment ratio is no more than 0.25.

On to KLSR, for which the enrichment ratio is no more than 0.25.

EGYF: the enrichment ratio was no more than 0.25.

With VNNK, the enrichment ratio was no more than 0.25.

For AQAR, the enrichment ratio was no more than 0.25.

Take DFEY: the enrichment ratio is no more than 0.25.

Take MNPK: the enrichment ratio is no more than 0.25.

Take MYEC: the enrichment ratio is no more than 0.25.

Consider KTHL, for which the enrichment ratio is no more than 0.25.

Regarding VNSM, the enrichment ratio came to 5.83.

In the case of WDTD, the enrichment ratio is no more than 0.25.

Regarding MTTD, the enrichment ratio is no more than 0.25.

On to WDTS, for which the enrichment ratio worked out at 0.51.

Consider TSLT, for which the enrichment ratio was 13.3.

For the variant YQKE, the enrichment ratio is no more than 0.25.

In the case of PPTY, the enrichment ratio was no more than 0.25.

FNGI: the enrichment ratio was no more than 0.25.

In the case of GSTN, the enrichment ratio was no more than 0.25.

Turning to TLDC, the enrichment ratio was no more than 0.25.

For the variant ISLI, the enrichment ratio turned out to be 11.2.

Take LNYY: the enrichment ratio came to 0.737.

In the case of NYQH, the enrichment ratio is no more than 0.25.

In the case of KYCM, the enrichment ratio was no more than 0.25.

As for NYQA, the enrichment ratio is no more than 0.25.

Turning to KHVH, the enrichment ratio was no more than 0.25.

Regarding SRIW, the enrichment ratio was no more than 0.25.

As to RCAD, the enrichment ratio was no more than 0.25.
